From a collection of fitness landscapes (doi:10.1016/j.celrep.2020.107928)
Whole data set: some 81,000 sequences, median “one-hybrid fitness for binding parS DNA” near -0.17, cut for the highest 2% near 0.51. The list shows a part of the results.

B1: Caulobacter ParB omega fusion; a variant is named by its letters at X, in order, B8GW30 (parent)
chain: MESVVVGEPGMSEGRRGLGRGLSALLGEVDAAPAQAPGEQLGGSREAPIEILQRNPDQPRRTFREEDLEDLSNSIREKGVLQPILVRPSPDTAGEYQIVAGERAWRAAQRAGLKTVPIMVRELDDLAVLEIGIIENVQRADLNVLEEALSYKVLMEKFERTQENIAQTIGKSXSHVANXMRLLXLPDEVQSYLVSGELTAXHARAIAAAADPVALAKQIIEGGLSVRETEALARKAPNLSAGKSKGGRPPRVKDTDTQALESDLSSVLGLDVSIDHRGSTGTLTITYATLEQLDDLCNRLTRGI

Variants of: B1
Test: one-hybrid fitness for binding parS DNA (scaled: cognate 1, non-cognate 0); higher = stronger binding
Conditions: with parS DNA site
Summary of the method: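 Selection: bacterial one-hybrid in E. coli USO, HIS3 reporter with the site 19 bp from the promoter, 48 hours at 37°C on M9-minus-histidine plus 0.1 mM IPTG and 5 mM 3-AT. Libraries were Caulobacter ParB with four randomised specificity codons, sequenced on Illumina before and after selection. Fitness is the rescaled log change in variant-to-wild-type read ratio, anchored to the cognate and non-cognate sites.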

Row | Variant | one-hybrid fitness for binding parS DNA
1 | VDRC | ≤ 0.2
2 | VVGV | ≤ 0.2
3 | IKQG | ≤ 0.2
4 | SSYT | ≤ 0.2
5 | TNRF | ≤ 0.2
6 | TDNW | ≤ 0.2
7 | AAYS | ≤ 0.2
8 | RSAG | 0.992
9 | QVGD | ≤ 0.2
10 | TCNG | ≤ 0.2
11 | PCPE | ≤ 0.2
12 | NTGG | ≤ 0.2
13 | GGRW | ≤ 0.2
14 | WMVR | ≤ 0.2
15 | TIQV | ≤ 0.2
16 | FEPR | ≤ 0.2
17 | KYHG | ≤ 0.2
18 | YGHG | ≤ 0.2
19 | QKRS | ≤ 0.2
20 | AAKR | ≤ 0.2
21 | TKDM | ≤ 0.2
22 | TKDH | ≤ 0.2
23 | RLIV | ≤ 0.2
24 | WSPP | ≤ 0.2

Row | Variant | one-hybrid fitness for binding parS DNA
25 | YLLC | ≤ 0.2
26 | SSSL | ≤ 0.2
27 | PNHL | ≤ 0.2
28 | GGPE | ≤ 0.2
29 | YTVR | ≤ 0.2
30 | MLGG | ≤ 0.2
31 | YDNG | ≤ 0.2
32 | IKTN | ≤ 0.2
33 | TDTF | ≤ 0.2
34 | EYDG | ≤ 0.2
35 | QLSI | ≤ 0.2
36 | LVSI | ≤ 0.2
37 | CNVR | ≤ 0.2
38 | ACSN | ≤ 0.2
39 | QHMD | ≤ 0.2
40 | PAKV | ≤ 0.2
41 | ESSC | ≤ 0.2
42 | SQEV | ≤ 0.2
43 | GPMM | ≤ 0.2
44 | IMRS | ≤ 0.2
45 | HPTI | ≤ 0.2
46 | GRWT | ≤ 0.2
47 | NNLD | ≤ 0.2
48 | ALTS | ≤ 0.2

Row | Variant | one-hybrid fitness for binding parS DNA
49 | RTPP | ≤ 0.2
50 | KING | ≤ 0.2
51 | IYCG | ≤ 0.2
52 | GRPH | ≤ 0.2
53 | LDQD | ≤ 0.2
54 | QKQA | ≤ 0.2
55 | SPSG | ≤ 0.2
56 | VRTM | ≤ 0.2
57 | THSG | ≤ 0.2
58 | KRIG | ≤ 0.2
59 | WMSR | ≤ 0.2
60 | HTTH | ≤ 0.2
61 | GMWT | ≤ 0.2
62 | PGDH | ≤ 0.2
63 | RSVP | ≤ 0.2
64 | PESK | ≤ 0.2
65 | GHSM | ≤ 0.2
66 | DRPG | ≤ 0.2
67 | KWTS | ≤ 0.2
68 | LMPT | ≤ 0.2
69 | MLQC | ≤ 0.2
70 | RLRF | 0.282
71 | KFHT | ≤ 0.2
72 | YPRA | ≤ 0.2

Row | Variant | one-hybrid fitness for binding parS DNA
73 | HAMR | ≤ 0.2
74 | YCDG | ≤ 0.2
75 | YKMT | ≤ 0.2
76 | DSHV | ≤ 0.2
77 | TNEY | ≤ 0.2
78 | RTKP | ≤ 0.2
79 | YTGS | ≤ 0.2
80 | RFPV | ≤ 0.2
81 | YTAR | ≤ 0.2
82 | DSIQ | ≤ 0.2
83 | PQSI | ≤ 0.2
84 | LATM | ≤ 0.2
85 | HKAT | ≤ 0.2
86 | DWHG | ≤ 0.2
87 | EPIG | ≤ 0.2
88 | RDTC | ≤ 0.2
89 | YRVT | ≤ 0.2
90 | RVIC | 0.846
91 | NGQK | ≤ 0.2
92 | ALVM | ≤ 0.2
93 | SHEI | ≤ 0.2
94 | TKIH | ≤ 0.2
95 | CFTK | ≤ 0.2
96 | FATM | ≤ 0.2

Row | Variant | one-hybrid fitness for binding parS DNA
97 | CPSL | ≤ 0.2
98 | RWWL | ≤ 0.2
99 | PAWL | ≤ 0.2
100 | MVSI | ≤ 0.2
101 | TNTC | ≤ 0.2
102 | MEYL | ≤ 0.2
103 | GLPQ | ≤ 0.2
104 | QQYA | ≤ 0.2
105 | QLAI | ≤ 0.2
106 | QDAG | ≤ 0.2
107 | PGMQ | ≤ 0.2
108 | ASTW | ≤ 0.2
109 | AAIT | ≤ 0.2
110 | WMQC | ≤ 0.2
111 | FTQF | ≤ 0.2
112 | RSHV | ≤ 0.2
113 | MTCT | ≤ 0.2
114 | WTVH | ≤ 0.2
115 | TLIM | ≤ 0.2
116 | DNCS | ≤ 0.2
117 | QRAL | ≤ 0.2
118 | ANHL | ≤ 0.2
119 | YHET | ≤ 0.2
120 | PHNQ | ≤ 0.2

Row | Variant | one-hybrid fitness for binding parS DNA
121 | RWNC | 0.79
122 | PLYF | ≤ 0.2
123 | PIVS | ≤ 0.2
124 | YDPR | ≤ 0.2
125 | NWQV | ≤ 0.2
126 | TYLF | ≤ 0.2
127 | CAFS | ≤ 0.2
128 | VYLA | ≤ 0.2
129 | TSIK | ≤ 0.2
130 | YQCR | ≤ 0.2
131 | QSLW | ≤ 0.2
132 | RDFT | ≤ 0.2
133 | TWVL | ≤ 0.2
134 | IWQG | ≤ 0.2
135 | YPHR | ≤ 0.2
136 | RWHM | ≤ 0.2
137 | NCTG | ≤ 0.2
138 | SNKW | ≤ 0.2
139 | AMII | ≤ 0.2
140 | FGCL | 0.26
141 | PGRC | ≤ 0.2
142 | PDWT | ≤ 0.2
143 | TMAR | ≤ 0.2
144 | FHLD | ≤ 0.2

Row | Variant | one-hybrid fitness for binding parS DNA
145 | QVLP | ≤ 0.2
146 | RPFT | ≤ 0.2
147 | HRAM | ≤ 0.2
148 | RLVM | 0.295
149 | QLNK | ≤ 0.2
150 | WGAE | ≤ 0.2
151 | TDHG | ≤ 0.2
152 | APAF | ≤ 0.2
153 | PRAP | ≤ 0.2
154 | FQAC | ≤ 0.2
155 | IACG | ≤ 0.2
156 | FWST | ≤ 0.2
157 | CPRC | ≤ 0.2
158 | DTGI | ≤ 0.2
159 | NHGC | ≤ 0.2
160 | AIDE | ≤ 0.2
161 | ACRY | ≤ 0.2
162 | DCVS | ≤ 0.2
163 | QQRF | ≤ 0.2
164 | QCQK | ≤ 0.2
165 | PSDP | ≤ 0.2
166 | AMNT | ≤ 0.2
167 | GPYT | ≤ 0.2
168 | RQLG | 0.982

Row | Variant | one-hybrid fitness for binding parS DNA
169 | ISTC | ≤ 0.2
170 | SPRL | ≤ 0.2
171 | KRRC | ≤ 0.2
172 | LVKY | ≤ 0.2
173 | SHFL | ≤ 0.2
174 | RGVV | ≤ 0.2
175 | FYLR | ≤ 0.2
176 | QAFT | ≤ 0.2
177 | EGAD | ≤ 0.2
178 | AYHN | ≤ 0.2
179 | ASMC | ≤ 0.2
180 | QLNV | ≤ 0.2
181 | MQLN | ≤ 0.2
182 | CYTT | ≤ 0.2
183 | RDAA | ≤ 0.2
184 | WIMT | ≤ 0.2
185 | GHRF | ≤ 0.2
186 | GVAS | ≤ 0.2
187 | KKVF | ≤ 0.2
188 | YPDV | ≤ 0.2
189 | NHVC | ≤ 0.2
190 | GCLG | ≤ 0.2
191 | HLNV | ≤ 0.2
192 | RMKC | 0.849

Row | Variant | one-hybrid fitness for binding parS DNA
193 | QDAT | ≤ 0.2
194 | QPEC | ≤ 0.2
195 | HLDM | ≤ 0.2
196 | IHHG | ≤ 0.2
197 | RALK | ≤ 0.2
198 | RQDM | 0.324
199 | PTKC | ≤ 0.2
200 | FRGL | ≤ 0.2
201 | CYGT | ≤ 0.2
202 | AFDT | ≤ 0.2
203 | RWAT | 0.614
204 | DWDG | ≤ 0.2
205 | DYKY | ≤ 0.2
206 | NWES | ≤ 0.2
207 | PLGF | ≤ 0.2
208 | SEGW | ≤ 0.2
209 | HDTG | ≤ 0.2
210 | VWKD | ≤ 0.2
211 | RYRI | ≤ 0.2
212 | NFNV | ≤ 0.2
213 | DIYS | ≤ 0.2
214 | KSCK | ≤ 0.2
215 | YPYS | ≤ 0.2
216 | EMRQ | ≤ 0.2

Row | Variant | one-hybrid fitness for binding parS DNA
217 | FKHI | ≤ 0.2
218 | PTLR | ≤ 0.2
219 | STWG | ≤ 0.2
220 | RSGR | ≤ 0.2
221 | IKTT | ≤ 0.2
222 | NYNI | ≤ 0.2
223 | GWWL | ≤ 0.2
224 | CEFG | ≤ 0.2
225 | LFLY | ≤ 0.2
226 | EPRN | ≤ 0.2
227 | MWSC | ≤ 0.2
228 | FNLI | ≤ 0.2
229 | HRLC | 0.225
230 | YDKC | ≤ 0.2
231 | ICCL | ≤ 0.2
232 | ATGK | ≤ 0.2
233 | LCCL | ≤ 0.2
234 | TNPR | ≤ 0.2
235 | VIKT | ≤ 0.2
236 | QIWS | ≤ 0.2
237 | RQQH | ≤ 0.2
238 | GWQT | ≤ 0.2
239 | AALA | ≤ 0.2
240 | CWTE | ≤ 0.2

Row | Variant | one-hybrid fitness for binding parS DNA
241 | RTCK | ≤ 0.2
242 | QESG | ≤ 0.2
243 | GALG | ≤ 0.2
244 | RAEM | 0.246
245 | LDHT | ≤ 0.2
246 | FALY | ≤ 0.2
247 | NIIG | ≤ 0.2
248 | PAED | ≤ 0.2
249 | HWQT | ≤ 0.2
250 | PWDS | ≤ 0.2
251 | PGLA | ≤ 0.2
252 | TFML | ≤ 0.2
253 | FVIL | ≤ 0.2
254 | NNAI | ≤ 0.2
255 | DRYC | ≤ 0.2
256 | YIDS | ≤ 0.2
257 | PWHC | ≤ 0.2
258 | LHIC | ≤ 0.2
259 | NSGA | ≤ 0.2
260 | DVMR | ≤ 0.2
261 | LKKS | ≤ 0.2
262 | EYEW | ≤ 0.2
263 | HAIG | ≤ 0.2
264 | PIRL | ≤ 0.2

Row | Variant | one-hybrid fitness for binding parS DNA
265 | LMNE | ≤ 0.2
266 | CFCT | ≤ 0.2
267 | TKKI | ≤ 0.2
268 | ASAP | ≤ 0.2
269 | MRRT | ≤ 0.2
270 | VWRI | ≤ 0.2
271 | VAFV | ≤ 0.2
272 | TWPP | ≤ 0.2
273 | PGMT | ≤ 0.2
274 | VCCG | ≤ 0.2
275 | HSHL | ≤ 0.2
276 | PTGV | ≤ 0.2
277 | CVRY | ≤ 0.2
278 | GISM | ≤ 0.2
279 | WSWC | ≤ 0.2
280 | RYVR | ≤ 0.2
281 | QCKK | ≤ 0.2
282 | HPAG | ≤ 0.2
283 | MESE | ≤ 0.2
284 | LCTM | ≤ 0.2
285 | VTND | ≤ 0.2
286 | SHKN | ≤ 0.2
287 | CSAT | ≤ 0.2
288 | QYMS | ≤ 0.2

Row | Variant | one-hybrid fitness for binding parS DNA
289 | YWTY | ≤ 0.2
290 | DLSY | ≤ 0.2
291 | ARLD | ≤ 0.2
292 | VEPE | ≤ 0.2
293 | YTQC | ≤ 0.2
294 | CCTA | ≤ 0.2
295 | DTCT | ≤ 0.2
296 | PIWS | ≤ 0.2
297 | QLKM | ≤ 0.2
298 | HWWG | ≤ 0.2
299 | AFEL | ≤ 0.2
300 | PCND | ≤ 0.2
301 | PLWT | ≤ 0.2
302 | ATDV | ≤ 0.2
303 | ATSE | ≤ 0.2
304 | DCCS | ≤ 0.2
305 | FADS | ≤ 0.2
306 | TKRR | ≤ 0.2
